In PubChem BioAssay AID1963576 (National Center for Advancing Translational Sciences (NCATS), 2024):
Hit rate of the full screen: of about 46,000 compounds, about 60 (0.1%) were called active. Not shown: some 3% with an inconclusive outcome. Calls follow the shape of the dose curve; as a rule, active = well fitted inhibition curve with a large enough effect; inconclusive = small, poorly fitted or top-dose-only effect; inactive = no such curve, though single readings can be large or run the other way. The list shows a part of the results.

Assay: Primary qHTS assay for Inhibitors of ovarian cancer metastasis using an organotypic tumor microenvironment (TME) model. Also: nearly all actives have a fitted effect of over 65% in size.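 As to activity change, negative = inhibition: plate controls were DMSO wells for no effect and tomatine positive control wells for full effect.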
Settings: SKOV3ip1-GFP adhesion/invasion on 3D omental model, fluorescence; series mostly up to 45.8 µM; activity change, negative = inhibition: at the top concentration
Summary of the method: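 Adhesion/invasion was scored as fixed GFP-labeled SKOV3ip1 cell counts (488/509 nm), normalized to DMSO and tomatine controls. Cancer cells in serum-free medium, with four compound doses (0.36-46 umol/L), sat 2 hr at RT then 16 hr at 37 C on a 48 hr fibroblast/mesothelial/ECM culture.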

Activity change, negative = inhibition, inactive:
COc1ccc2c(OCc3nnc4ccc(-c5ccccc5)nn34)ccnc2c1 -10.8%
Cc1ccc2c(c1)-c1nc(-c3ccc4c(c3)NC(=O)CO4)cc(-c3ccc(Cl)cc3)c1CO2 9.04%
Cn1c(=O)c2c([nH]c(=O)n2Cc2ccc(Cl)cc2Cl)n(C)c1=O 3.56%
Cc1ccc(NC(=O)Cn2cc3c(n2)CCCCC3)cc1 -2.62%
COC(=O)c1c(Oc2ccc(C(C)=O)cc2)nnc(-c2ccccc2)c1-c1ccccc1 0.592%
COc1ccccc1CNC(=O)CN1C(=O)CSc2ccc(S(=O)(=O)N3CCCCC3)cc21 -0.597%
CCCc1c(C)c2ccc(O)c(CN3CCN(c4ccc(F)cc4)CC3)c2oc1=O -19.5%
CC1=C(C(=O)N2CCN(c3cccc(C(F)(F)F)c3)CC2)C2(CCCCC2)OC1=O -20.3%
CCOC(=O)c1noc2nc(C)n(CC(=O)Nc3ccccc3F)c(=O)c12 -1.19%
Cc1ccc(C)c(Nc2nc3c(S(=O)(=O)c4ccc(C(C)C)cc4)nnn3c3ccsc23)c1 6.31%
O=C(Nc1ccc(Cl)cc1Cl)c1cc(S(=O)(=O)N2CCc3ccccc32)ccc1F 13.4%
Cc1ccc(S(=O)(=O)Nc2cccc(-c3cn4cccc(C)c4n3)c2)cc1 1.51%
COc1ccc(OC)c2sc(N3CCN(C(=O)C4CC4)CC3)nc12 1.5%
COc1ccc(S(=O)(=O)n2ccnc2)cc1C(C)(C)C 20.8%
Cc1ccccc1CCNC(=O)c1ccc2c(c1)c(C)c(C)n2Cc1ccccc1 -6.09%
CCOc1ccc(CNC(=O)CSc2nnc(C)c3c(C)n(-c4ccccc4)nc23)cc1 -12.7%
CC(C)CN(CCCNC(=O)CN1C(=O)CSc2ccc(S(=O)(=O)N3CCOCC3)cc21)CC(C)C -6.88%
CCOc1ccc(NC(=O)CC2C(=O)OCCN2CC)cc1 (stereo unspecified) 1.32%
COc1ccc(OC)c(-n2cnc3cc(C(=O)NC4CCCCCC4)ccc32)c1 2.03%
CS(=O)(=O)N(CC(=O)NCCc1ccccc1)c1cc(C(F)(F)F)ccc1Cl 4.9%
Cc1cccc(-c2nnn3c2nc(NCCc2ccc(S(N)(=O)=O)cc2)c2cc(Cl)ccc23)c1 4.74%
COc1ccc(-c2cc(C)nc3c(-c4ccc(OC)c(OC)c4)c(C)nn23)cc1 -14.7%
COc1ccc(N2CCN(C(=O)c3cc4ccc5cccnc5c4[nH]3)CC2)cc1 -3.55%
Cc1cccc(Oc2nc3c(c(=O)n(C)c(=O)n3C)n2C)c1 -10.5%
COc1ccc(OC)c(CCNc2ncnc3onc(-c4ccc(F)cc4)c23)c1 0.761%
CC(NC(=O)c1ccccc1NC(=O)c1nsc2ccccc12)c1ccccc1 (stereo unspecified) 3.37%
CNC(=O)c1cc(Nc2nnc(-c3ccc(O)cc3)c3ccccc23)ccc1OC 2.45%
Fc1cc(Br)ccc1Nc1c2c(nc3nc(-c4cccs4)nn13)CCCC2 -26.9%
O=C1CCCc2cc(S(=O)(=O)NCC3CCC(C(=O)Nc4ccccc4F)CC3)ccc2N1 (stereo unspecified) 18%
CCCCOc1ccc(C(=O)N2CCN(CCc3ccccn3)CC2)cc1 1.84%
CC(=O)c1ccc(NC(=O)C2=CC(c3ccc4c(c3)OCO4)=NS(=O)(=O)N2C)cc1 18.2%
COC(=O)c1ccc(OC)c(Cn2c(=O)n(Cc3ccccc3)c(=O)c3c2c2cc(OC)ccc2n3C)c1 0.627%
Cc1ccc(C(=O)Nc2ccc3oc(-c4ccc(C(C)(C)C)cc4)nc3c2)cc1 0.0841%
Cc1ccc(CNC(=O)CCCCCn2c(=O)c3sccc3n(CC(=O)N(C)c3ccccc3)c2=O)cc1 2.04%
Cc1ccc(-c2ccc(CCC(=O)O)n2-c2cccc(O)c2)cc1 2.96%
O=c1n(Cc2cccc(C(F)(F)F)c2)c2ccccc2c2nc(-c3ccccc3)nn12 1.1%
COc1ccc(-c2noc(CCC(=O)NCc3ccc(C)cc3)n2)cc1 -24.8%
Cc1ccc(NS(=O)(=O)c2ccc3[nH]c(=O)ccc3c2)cc1N(C)C -5.97%
Cc1ccc(NC(=O)c2cc(C)nc3c2c(C)nn3-c2cccc(Cl)c2C)c(C)c1 -15.1%
Cc1cccc(Cn2c(=O)n(CCc3ccccc3)c(=O)c3c(C)c(C)sc32)c1 9.08%
CCc1ccc2oc(C(=O)Nc3cccc(C(F)(F)F)c3)cc(=O)c2c1 -5.47%
COc1ccccc1CN1COc2ccc3c(oc(=O)c4ccccc43)c2C1 -22.2%
CCOC(=O)[C@@H](N)Cc1ccc(-c2cc(O[C@H](c3ccc(Cl)cc3-n3ccc(C)n3)C(F)(F)F)nc(N)n2)cc1 -11.7%
COc1ccc(S(=O)(=O)N2CCCCC2)cc1C(=O)Nc1cccc(C(F)(F)F)c1 28.3%
COc1ccc(/C=C/C(=O)Nc2sc3c(c2C(N)=O)CCCC3)cc1 30%
CCOC(=O)C1CCC(CN(Cc2ccc(Cl)cc2)S(=O)(=O)c2ccc(F)c(C(=O)Nc3cccc(F)c3)c2)CC1 (stereo unspecified) -0.315%
CCn1c(=O)cc(SCC(=O)NCCc2ccc(Cl)cc2)c2ccccc21 -5.37%
CCn1c(=O)c2cc(C(=O)NCCc3cc(OC)ccc3OC)sc2c2ccccc21 -3.16%
Cc1cccc(Cn2cc(C(=O)Nc3ccc(F)c(C(F)(F)F)c3)ccc2=O)c1 25.7%
Cc1ccc(-n2c(C)nc3c(cnn3-c3ccccc3C)c2=O)cc1F -4.59%
CCc1ccc2oc(-c3ccc(NC(=O)c4ccc(OC)c(Br)c4)cc3)nc2c1 0.621%
Cc1cc(C)c(Cn2c3ccccc3c3cnn(CC(=O)N4CCCCCC4)c(=O)c32)c(C)c1 3.12%
Cc1ccc(-c2cc(C(F)(F)F)n3nc(C(=O)Nc4ccc(Cl)c(C(F)(F)F)c4)cc3n2)cc1 6.41%
Cc1cccc(-n2c(-c3ccccc3)cn3c4c(=O)[nH]c(=O)n(C)c4nc23)c1 7.86%
Cn1cc(S(=O)(=O)c2ccccc2)c(=O)c2cc(F)c(N3CCN(c4ccccc4)CC3)cc21 5.69%
COC(=O)c1cc(C)nc2c1c(=O)nc(SCc1ccccc1F)n2C1CC1 -3.27%
CCOC(=O)CN1C(=O)C(O)(CC(=O)c2cc(OC)ccc2OC)c2ccccc21 (stereo unspecified) 1.8%
O=S1(=O)c2ccccc2N(Cc2ccccc2)c2ccccc21 -1.97%
CC(=O)c1ccc(NC(=O)c2c3c(nc4ccccc24)C(=O)N(C2CCCCC2)C3)cc1 -7.42%
CCN(CC)CCCNC(=O)C1CCN(S(=O)(=O)CC)CC1 5.21%
CCOc1ccc(C(=O)Nc2c(C(=O)Nc3ccccc3F)oc3ccccc23)cc1OCC -7.11%
O=C(Cn1c(=O)n(-c2cccc(Cl)c2)c(=O)c2sc3ccccc3c21)N1CCCC1 -5.85%
O=C(c1ccc2c(c1)CCN2S(=O)(=O)c1ccccc1)N1CCN(c2ccc(F)cc2)CC1 -0.702%
O=C(Nc1cccc(Br)c1)N1CCC(CN2CCCCC2)CC1 -2.15%
COc1ccc(OCCn2cc(C(=O)C3CCCCC3)c3ccccc32)cc1 3.4%
CC(=O)c1cc2c(cc1NC(=O)c1c(C)nn(-c3ccc(C)cc3)c1-n1cccc1)OCO2 -7.59%
CC1CCN(Cc2c(O)ccc3c(=O)c(-c4cccc(Cl)c4)c(C(F)(F)F)oc23)CC1 0.356%
CCc1cccc(NC(=O)Cn2c(=O)n(Cc3ccccc3)c(=O)c3c2c2cc(OC)ccc2n3C)c1 -3.83%
O=C(NCc1ccc(Cl)cc1)C(=O)Nc1ccc(Br)cc1 -11%
O=S(=O)(Nc1ccc2oc3c(c2c1)CCCC3)c1cc(Cl)ccc1Cl 0.732%
CCN(C(=O)Cn1nc(Cc2cccnc2)c2ccccc2c1=O)c1ccccc1F -5.49%
CC1CCN(C(=O)CSc2nnc(-c3ccccc3Cl)o2)CC1 -3.97%
COc1ccc(NC(=O)/C(C#N)=C/c2ccc(OCc3cc(=O)n4nc(C)sc4n3)cc2)cc1 19.1%
COC(=O)c1c(NC(=O)CCCOc2ccc(C(C)(C)C)cc2)sc2c1CCC(C)C2 (stereo unspecified) 0.627%
O=C(NCCc1csc(-c2ccc(Cl)cc2)n1)c1cccs1 -5.26%

outcome, inactive:
CCN(c1ccccc1)c1ncnc2c1cnn2-c1ccc(C)cc1C
CCOC(=O)c1ccccc1NC(=O)c1cc2c(=O)oc3ccc(C)cc3c2s1
CCc1ccc(C2CC(=O)Nc3cc4c(cc32)OCO4)cc1 (stereo unspecified)
Cc1cccc(N2CCN(C(=O)c3c(C)oc4ncnc(N5CCCCC5)c34)CC2)c1C
CCc1ccccc1N1C(=O)N(Cc2ccccc2C)c2ccccc2S1(=O)=O
COc1ccccc1NC(=O)c1cnc(SCC(=O)N2CCCc3ccccc32)n(C)c1=O
CSc1ccc(-c2nc3ccc(C)cn3c2Nc2ccccc2C)cc1
O=C(NCC12CC3CC(CC(C3)C1)C2)c1cc2nc(-c3ccccc3)cc(C(F)(F)F)n2n1
CCCCCn1c(=O)[nH]c2cc(C(=O)N3CCN(c4cccc(C)c4)C(C)C3)ccc2c1=O (stereo unspecified)
COc1ccc(-c2ccc(=O)n(CC(=O)Nc3ccc(C)cc3C)n2)cc1
C#CCOc1ccc(-c2nnc(Nc3cccc(C)c3)c3ccccc23)cc1
CSc1nn(Cc2ccc(Cl)cc2)c(N(C(C)=O)C(C)=O)c1S(=O)(=O)c1ccccc1
CCn1cc(C(=O)NCc2ccccc2OC)c(=O)c2cc(S(=O)(=O)N3CCCCC3)ccc21
COc1ccccc1Nc1cc(C(=O)NC2CCCC2)c2ccccc2n1
COc1cccc2sc(=NC(=O)c3ccc(S(=O)(=O)N4CCCCC4)cc3)n(C)c12
CCOC(=O)c1cnc(NCc2ccccc2OC)c2ccccc12
CCCCN(CC)CCNC(=O)c1cc2c(=O)oc3ccc(C)cc3c2s1
O=C(NCc1cccc(F)c1)c1ccc(-n2cnc3cccnc32)cc1
Cc1cccc(C)c1OCC(=O)Nc1nc(-c2ccc(Br)cc2)ns1
COc1cccc(N2CCN(C(=O)c3cnn(C(C)(C)C)c3C3CCN(C(=O)OC(C)(C)C)CC3)CC2)c1
CCc1ccccc1NC(=O)Cn1c(-c2nonc2N)nc2ccccc21
